The labels stand for the following.
B1: TEV protease; numbered along this chain (parent)
chain: MGESLFKGPRDYNPISSSICHLTNESDGHTTSLYGIGFGPFIITNKHLFRRNNGTLVVQSLHGVFKVKDTTTLQQHLVDGRDMIIIRMPKDFPPFPQKLKFREPQREERICLVTTNFQTKSMSSMVSDTSCTFPSGDGIFWKHWIQTKDGQCGSPLVSTRDGFIVGIHSASNFTNTNNYFTSVPKNFMELLTNQEAQQWVSGWRLNADSVLWGGHKVFMVKPEEPFQPVKEATQL

This experiment covers variants of B1. Put plainly: raw area under fraction-flipped curve 0-4 h after induction (AUC4h, not background-subtracted), DNA-recorder readout of cleavage of the substrate (dimensionless); higher = more cleavage of the substrate by the protease variant. The following applies: temperature: 34 °C; time window: 0-4 h after rhamnose induction.

The list shows a part of the results. The full chains were built here from the parent and the listed change. Values near 0.05 are background.
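Note: Bxb1 expression induced with 0.2% (w/v) L-rhamnose at OD600 near 0.5, cultures sampled hourly, flipped fraction per protease–substrate barcode pair counted by paired-end Illumina sequencing.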

Take MGESLFKGPRDYNPISSSICHLTNESDGHTTSLYGIGFGPFIITNKHLFRRNNGTLVVQSLHGVFKVKDTTTLQQHLVDGRDMIIIRMPKDFPPFPQKLKFREPQREERICLVTTNFQTKSMSSFVSDTSCTFPSGDGIFWKHWIQTKDGQCGSPLVSTRDGFIVGIHSASNFTNTNNYFTSVPKNFMELLTNQEAQQWVSGWRLNADSVLWGGHKVFMVKPEEPFQPVKEATQL [M125F]: the “area with substrate ENLYFDS” value amounted to 0.0722, the “area with substrate ENLYFFS” value stood at 0.0605, the “area with substrate ENLYFGS” value was found to be 0.0632 and the “area with substrate ENLYFIS” value was determined as 0.0379. Also, the “area with substrate ENLYFKS” value came out at 0.0575, the “area with substrate ENLYFMS” value worked out at 0.0726, the “area with substrate ENLYFPS” value was 0.0568 and the “area with substrate ENLYFSS” value was 0.0662. In addition, the “area with substrate ENLYFWS” value came to 0.0531.
As for MGESLFKGPRDYNPISSSICHLTNESDGHTTSAYGIGFGPFIITNKHLFRRNNGTLVVQSLHGVFKVKDTTTLQQHLVDGRDMIIIRMPKDFPPFPQKLKFREPQREERICLVTTNFQTKSMSSMVSDTSCTFPSGDGIFWKHWIQTKDGQCGSPLVSTRDGFIVGIHSASNFTNTNNYFTSVPKNFMELLTNQEAQQWVSGWRLNADSVLWGGHKVFMVKPEEPFQPVKEATQL [L33A], the “area with substrate ENLYFDS” value worked out at 0.063, the “area with substrate ENLYFFS” value is 0.101, the “area with substrate ENLYFIS” value is 0.0543 and the “area with substrate ENLYFNS” value came to 0.0558. Also, the “area with substrate ENLYFPS” value stood at 0.0477, the “area with substrate ENLYFRS” value stood at 0.0539 and the “area with substrate ENLYFVS” value amounted to 0.0668.
With MGESLFKGPRDYNPISSSICHLTNESDGHTTSLYGIGFGPEIITNKHLFRRNNGTLVVQSLHGVFKVKDTTTLQQHLVDGRDMIIIRMPKDFPPFPQKLKFREPQREERICLVTTNFQTKSMSSMVSDTSCTFPSGDGIFWKHWIQTKDGQCGSPLVSTRDGFIVGIHSASNFTNTNNYFTSVPKNFMELLTNQEAQQWVSGWRLNADSVLWGGHKVFMVKPEEPFQPVKEATQL [F41E], the “area with substrate ENLYFDS” value is 0.0397, the “area with substrate ENLYFFS” value worked out at 0.0581, the “area with substrate ENLYFGS” value turned out to be 0.0293 and the “area with substrate ENLYFIS” value stood at 0.0562. Also, the “area with substrate ENLYFKS” value is 0.0555, the “area with substrate ENLYFMS” value was 0.0876, the “area with substrate ENLYFPS” value is 0.0577 and the “area with substrate ENLYFSS” value amounted to 0.0395. Moreover, the “area with substrate ENLYFTS” value turned out to be 0.0634, the “area with substrate ENLYFWS” value worked out at 0.0246 and the “area with substrate ENLYFYS” value was determined as 0.0529.
Regarding MGESLFKGPRDYNPISSSICHLTNESDGHTTSLYGIGFGPFIITNKHLFRRNNGTLVVQSLHGVFKVKDTTTLQQHLVDGRDMIIIRMPKDFPPFPQKLKFREPQREERICLVTTNFQTKSMSSMVSDTSCTFPSGDGIFWKHWIQTKDGQCGSPLVSTRDGFIVGIHSASNFTNTNNYFTSVPKNFMELLTNQEAQQWVTGWRLNADSVLWGGHKVFMVKPEEPFQPVKEATQL [S201T], the “area with substrate ENLYFDS” value is 0.0534, the “area with substrate ENLYFES” value turned out to be 0.0663, the “area with substrate ENLYFHS” value was 0.0506 and the “area with substrate ENLYFKS” value stood at 0.0559. Further, the “area with substrate ENLYFNS” value turned out to be 0.0652, the “area with substrate ENLYFPS” value was determined as 0.0591, the “area with substrate ENLYFRS” value amounted to 0.0592 and the “area with substrate ENLYFVS” value was found to be 0.0682. The “area with substrate ENLYFWS” value is 0.0568.
As to MGESLFKGPRDYNPISSSICHLTNESDGHTTSLYFIGFGPFIITNKHLFRRNNGTLVVQSLHGVFKVKDTTTLQQHLVDGRDMIIIRMPKDFPPFPQKLKFREPQREERICLVTTNFQTKSMSSMVSDTSCTFPSGDGIFWKHWIQTKDGQCGSPLVSTRDGFIVGIHSASNFTNTNNYFTSVPKNFMELLTNQEAQQWVSGWRLNADSVLWGGHKVFMVKPEEPFQPVKEATQL [G35F], the “area with substrate ENLYFDS” value is 0.0528, the “area with substrate ENLYFIS” value worked out at 0.0402, the “area with substrate ENLYFLS” value was 0.0459 and the “area with substrate ENLYFNS” value worked out at 0.0488. Also, the “area with substrate ENLYFPS” value came to 0.0453 and the “area with substrate ENLYFRS” value stood at 0.0432.
For the variant MGESLFKGPRDYNPISSSICHLTNESDGHTTSLYGIGFGPFIITNKHLFRRNNGTLVVQSLHGVFKVKDTTTLQQHLVDGRDMIIIRMPKDFPPFPQKLKFREPQREERICLVTTNFQTKSMSSMVSDTSCTFPSGDGIFWKHWIQTKDGQCGSPLVSTRDGFIVGIHSASNFTNTNNYFTSVPKNFMELNTNQEAQQWVSGWRLNADSVLWGGHKVFMVKPEEPFQPVKEATQL [L191N], the “area with substrate ENLYFDS” value came to 0.0399, the “area with substrate ENLYFES” value stood at 0.0586, the “area with substrate ENLYFFS” value was 0.0503 and the “area with substrate ENLYFGS” value turned out to be 0.0528. Besides, the “area with substrate ENLYFIS” value was 0.0559, the “area with substrate ENLYFPS” value is 0.0501, the “area with substrate ENLYFSS” value is 0.0552 and the “area with substrate ENLYFTS” value stood at 0.0558. Further, the “area with substrate ENLYFWS” value worked out at 0.0542 and the “area with substrate ENLYFYS” value is 0.0527.
As to MGESLFKGPRDYNPISSSICHLTNESDGHTTSLYGIGFGPFIITNKHLFRRNNGTLVVCSLHGVFKVKDTTTLQQHLVDGRDMIIIRMPKDFPPFPQKLKFREPQREERICLVTTNFQTKSMSSMVSDTSCTFPSGDGIFWKHWIQTKDGQCGSPLVSTRDGFIVGIHSASNFTNTNNYFTSVPKNFMELLTNQEAQQWVSGWRLNADSVLWGGHKVFMVKPEEPFQPVKEATQL [Q59C], the “area with substrate ENLYFDS” value stood at 0.0516, the “area with substrate ENLYFES” value came to 0.0713, the “area with substrate ENLYFFS” value amounted to 0.0766 and the “area with substrate ENLYFGS” value is 0.0483. The “area with substrate ENLYFIS” value worked out at 0.0614, the “area with substrate ENLYFKS” value turned out to be 0.0728, the “area with substrate ENLYFLS” value was found to be 0.0407 and the “area with substrate ENLYFMS” value was 0.072. Moreover, the “area with substrate ENLYFPS” value is 0.0573 and the “area with substrate ENLYFTS” value came out at 0.0473.
In the case of MGESLFKGPRDYNPISSSICHLTNESDGHTTSLYGIGFGPFIITNKHLLRRNNGTLVVQSLHGVFKVKDTTTLQQHLVDGRDMIIIRMPKDFPPFPQKLKFREPQREERICLVTTNFQTKSMSSMVSDTSCTFPSGDGIFWKHWIQTKDGQCGSPLVSTRDGFIVGIHSASNFTNTNNYFTSVPKNFMELLTNQEAQQWVSGWRLNADSVLWGGHKVFMVKPEEPFQPVKEATQL [F49L], the “area with substrate ENLYFDS” value turned out to be 0.0437, the “area with substrate ENLYFES” value was determined as 0.0433, the “area with substrate ENLYFFS” value amounted to 0.0525 and the “area with substrate ENLYFHS” value came to 0.0436. Moreover, the “area with substrate ENLYFIS” value was found to be 0.0577, the “area with substrate ENLYFKS” value turned out to be 0.0627, the “area with substrate ENLYFMS” value amounted to 0.0575 and the “area with substrate ENLYFNS” value amounted to 0.0634. Further, the “area with substrate ENLYFPS” value is 0.0661, the “area with substrate ENLYFRS” value was found to be 0.0549, the “area with substrate ENLYFSS” value stood at 0.0431 and the “area with substrate ENLYFTS” value was found to be 0.0489. Further, the “area with substrate ENLYFYS” value was determined as 0.0571.
Regarding MGESLFKGPRDYNPISSSICHLTNESDGHTTSLYGIGFGPFIITNKHLFRRNNGTLVVQSLHGVFKVKDTTTLQQHLVDGRDMKIIRMPKDFPPFPQKLKFREPQREERICLVTTNFQTKSMSSMVSDTSCTFPSGDGIFWKHWIQTKDGQCGSPLVSTRDGFIVGIHSASNFTNTNNYFTSVPKNFMELLTNQEAQQWVSGWRLNADSVLWGGHKVFMVKPEEPFQPVKEATQL [I84K], the “area with substrate ENLYFDS” value turned out to be 0.062, the “area with substrate ENLYFES” value is 0.061, the “area with substrate ENLYFGS” value worked out at 0.0586 and the “area with substrate ENLYFHS” value is 0.112. The “area with substrate ENLYFIS” value turned out to be 0.055, the “area with substrate ENLYFMS” value turned out to be 0.0562, the “area with substrate ENLYFNS” value was found to be 0.06 and the “area with substrate ENLYFPS” value is 0.057. Further, the “area with substrate ENLYFRS” value worked out at 0.0669, the “area with substrate ENLYFTS” value was 0.0513 and the “area with substrate ENLYFWS” value was found to be 0.0404.
MGESLFKGPRDYNPISSSICHLTNESDGHTTSLYGIGFGPFIITNKHLFRRNNGTLVVQSLHGVFKVKDTTTLQQHLVDGRDMIIIRMPKDFPPFPMKLKFREPQREERICLVTTNFQTKSMSSMVSDTSCTFPSGDGIFWKHWIQTKDGQCGSPLVSTRDGFIVGIHSASNFTNTNNYFTSVPKNFMELLTNQEAQQWVSGWRLNADSVLWGGHKVFMVKPEEPFQPVKEATQL [Q97M]: the “area with substrate ENLYFDS” value is 0.0587, the “area with substrate ENLYFES” value was found to be 0.0808, the “area with substrate ENLYFFS” value is 0.045 and the “area with substrate ENLYFGS” value stood at 0.061. Further, the “area with substrate ENLYFIS” value was 0.0601, the “area with substrate ENLYFKS” value is 0.0771, the “area with substrate ENLYFLS” value turned out to be 0.0711 and the “area with substrate ENLYFMS” value turned out to be 0.0717. In addition, the “area with substrate ENLYFPS” value is 0.0579, the “area with substrate ENLYFTS” value worked out at 0.0542, the “area with substrate ENLYFWS” value came to 0.0627 and the “area with substrate ENLYFYS” value was determined as 0.0612.

These data come from the supplement of paper PMC12217912.
